# In patent US6803203B1, “DNA-PK assay” (Brookhaven Science Associates, priority 1993, dated 2004):
# For some assays here: Not every detail of the peptide structures is certain; ends, links or a residue may be inferred. Some of these results come from one statement about several compounds together. Residues, ends and D or L forms follow the SMILES beside them. No end group written: not given here.
# Tests used:
# Type in all cases: biochemical
# [1] = molecular target: T1, DNA-PK (Homo sapiens, UniProt P78527); assay: Identification of phosphorylated residues (sequence analysis, S-ethylcysteine conversion); conditions: p53 residue numbering
# T1 construct: DNA-PK was purified from HeLa cells; endogenous in cells; host or cells: HeLa S3 cells; the endogenous enzyme was purified in house by chromatography
# [2] = system: casein kinase I; assay: Phosphate incorporation into peptides by casein kinase I; conditions: same concentration (200 or 500 μM)
# [3] = molecular target: casein kinase II (Homo sapiens, UniProt P68400); assay: Phosphate incorporation into peptides by casein kinase II; conditions: same concentration (200 or 500 μM)
# Chain of casein kinase II (P68400 whole entry): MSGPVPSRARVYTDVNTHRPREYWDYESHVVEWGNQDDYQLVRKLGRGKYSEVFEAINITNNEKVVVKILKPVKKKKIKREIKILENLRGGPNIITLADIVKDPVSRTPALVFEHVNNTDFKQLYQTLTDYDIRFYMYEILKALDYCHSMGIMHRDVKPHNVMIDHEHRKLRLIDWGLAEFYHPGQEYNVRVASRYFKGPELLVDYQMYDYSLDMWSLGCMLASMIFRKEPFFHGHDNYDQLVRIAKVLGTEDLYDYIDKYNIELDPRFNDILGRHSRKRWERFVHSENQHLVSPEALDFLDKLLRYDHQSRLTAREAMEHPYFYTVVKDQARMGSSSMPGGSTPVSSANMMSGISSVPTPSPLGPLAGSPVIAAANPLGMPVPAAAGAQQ
# Chain of casein kinase II (P67870 whole entry partner): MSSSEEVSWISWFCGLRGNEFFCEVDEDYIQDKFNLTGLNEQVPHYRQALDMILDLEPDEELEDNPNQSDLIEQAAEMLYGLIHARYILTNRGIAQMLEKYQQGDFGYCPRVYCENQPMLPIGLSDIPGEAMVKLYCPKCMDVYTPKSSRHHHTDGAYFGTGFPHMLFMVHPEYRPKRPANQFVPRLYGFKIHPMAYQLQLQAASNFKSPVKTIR
# [4] = molecular target: catalytic subunit of cyclic AMP kinase (Homo sapiens, UniProt P17612); assay: Phosphate incorporation into peptides by cyclic AMP kinase; conditions: same concentration (200 or 500 μM)
# [5] = molecular target: T1, DNA-PK; assay: Poorer substrate peptides added to (SEQ ID NO: 8) phosphorylation assays; conditions: peptide up to 250 μM; (SEQ ID NO: 8) at 100 μM
compound,measurement,setting,value
CSCC[C@H](NC(=O)[C@H](C)NC(=O)[C@H](CCC(N)=O)NC(=O)[C@H](CO)NC(=O)[C@@H]1CCCN1C(=O)[C@H](CC(C)C)NC(=O)[C@@H]1CCCN1C(=O)[C@H](CO)NC(=O)[C@H](CC(C)C)NC(=O)[C@@H](NC(=O)[C@H](CC(N)=O)NC(=O)[C@@H](N)CC(N)=O)C(C)C)C(=O)N[C@@H](CC(=O)O)C(=O)N[C@@H](CC(=O)O)C(=O)N[C@@H](CC(C)C)C(=O)N[C@@H](CCSC)C(=O)N[C@@H](CCCCN)C(=O)N[C@@H](CCCCN)C(=O)O [SEQ ID NO: 6],site phosphorylated by DNA-PK,[1],serine 37
EPPLSEQAFADLWKK [SEQ ID NO: 20],incorporation of phosphate relative to the standard peptide of the kinase,[2],less than 5%
same,incorporation of phosphate relative to the standard peptide of the kinase,[3],less than 5%
same,incorporation of phosphate relative to the standard peptide of the kinase,[4],less than 5%
CC(C)C[C@H](NC(=O)[C@H](CC(=O)O)NC(=O)[C@H](C)NC(=O)[C@H](Cc1ccccc1)NC(=O)[C@H](C)NC(=O)[C@H](CCCCN)NC(=O)[C@H](CCC(N)=O)NC(=O)[C@H](CO)NC(=O)[C@H](CC(C)C)NC(=O)[C@@H]1CCCN1C(=O)[C@@H]1CCCN1C(=O)[C@@H](N)CCC(=O)O)C(=O)N[C@@H](Cc1c[nH]c2ccccc12)C(=O)N[C@@H](CCCCN)C(=O)N[C@@H](CCCCN)C(=O)O [SEQ ID NO: 13] (H-EPPLSQKAFADLWKK-OH),inhibition of phosphorylation of (SEQ ID NO: 8),[5],None of these peptides significantly inhibited the phosphorylation
